Results: PubChem BioAssay AID504444 (National Center for Advancing Translational Sciences (NCATS), 2011)
Hit rate of the full screen: of about 360,000 compounds, about 7,500 (2.1%) were called active. Not shown: some 20% with an inconclusive outcome. Calls follow the shape of the dose curve; as a rule, active = well fitted inhibition curve with a large enough effect; inconclusive = small, poorly fitted or top-dose-only effect, or effect the other way; inactive = flat fitted curve, though single readings scatter. The entries are a selection whose mix differs from that of the whole data set. Where a structure was tested more than once in an assay, its records may differ in their call.

Test: Nrf2 qHTS screen for inhibitors; also: nearly all actives have a fitted effect of over 60% in size
Settings: A549 ARE-Fluc reporter, luciferase luminescence, 18-24 h; series mostly up to 46 µM; activity change, negative = inhibition: at the top concentration
Procedure, shortened: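 A549 ARE_Fluc cells (5000/well, 5% FBS OPTI-MEM) pre-incubated 2 h, then treated with compounds 18-24 h at 37C/5% CO2 in concentration-response. CellTiter-Fluor viability read first; BugLite luciferase luminescence after 15 min at room temperature gives Nrf2 activity.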
% is scaled to controls: 0 for no effect and ±100 for the full control effect; potency is read from the fitted curve at half-maximal effect.

| Structure (SMILES) | activity change, negative = inhibition | Potency |
| --- | --- | --- |
| CN(C)C1C(=O)C(C(N)=O)=C(O)C2(O)C(=O)C3=C(O)c4c(O)cccc4C(C)(O)C3C(O)C12 (configuration not stated) | inactive: 7.04% |  |
| C[C@]12C[C@H](O)[C@@H](O)CC1=CCC1C2CC[C@@]2(C)C1CC[C@@H]2O (some centres not stated) | inactive: -0.895% |  |
| C[C@@H]1O[C@@H](Oc2c(-c3ccc(O)c(O)c3)oc3cc(O)cc(O)c3c2=O)[C@H](O)[C@H](O)[C@H]1O | inactive: 6.98% |  |
| COc1cc2c(c(OC)c1OC)-c1ccc(O)c(=O)cc1[C@@H](NC(C)=O)CC2 | inactive: 2.51% |  |
| CCCNS(=O)(=O)c1ccc(OCC(=O)N2CCN(Cc3ccc4c(c3)OCO4)CC2)cc1 |  | active: 8.2 µM |
| O=C1NC(=O)N(Cc2ccccc2)C(=O)/C1=C/C=C/c1ccco1 | inactive: -11.8% |  |
| COC1=CC(=O)[C@]2(C=C1OC)OC[C@@H]1Oc3c(ccc4c3C=CC(C)(C)O4)C(=O)[C@@H]12 |  | active: 0.651 µM |
| COc1ccc(OCC(=O)N2CCN(Cc3ccc(SC)cc3)CC2)cc1 | inactive: -8.69% |  |
| Cc1ccc(-c2nn3c(C)nnc3c3ccccc23)cc1S(=O)(=O)NCCO | inactive: -22.3% |  |
| O=[N+]([O-])c1ccc(C2C3C(c4ccccc4)=NC4(CCCCC4)N32)cc1 (configuration not stated) | inactive: -7.33% |  |
| COC(=O)C1=C(c2ccc(F)cc2OCc2ccccc2)C[C@@H]2CC[C@H]1N2C(=O)NC1Cc2ccccc2C1 |  | active: 16.4 µM |
| O=C(O)CC1OCC=C2CN3CCC45C6=CC(=O)C(=O)C([N+](=O)[O-])=C6NC4C1C2CC35 (configuration not stated) | inactive: -12.5% |  |
| Cc1ccccc1-n1c(/C=C/c2c(C)[nH]c3ccccc23)nc2ccccc2c1=O |  | active: 20.6 µM |
| C[C@]12CC[C@H](O)C[C@H]1CC[C@@H]1C2CC[C@]2(C)[C@@H](C3=CC(=O)OC3)[C@@H](O)C[C@]12O (some centres not stated) |  | active: 1.84 µM |
| Cc1cc(C)cc(N2C(=O)NC(=O)/C(=C\c3cccn3-c3ccc(Cl)cc3)C2=O)c1 | inactive: 6.43% |  |
| COc1cc(C2c3cc4c(cc3CC3COC(=O)C32)OCO4)cc(OC)c1O (configuration not stated) | inactive: -5.04% |  |
| CSc1ccc(CN2CCN(C(=O)COc3cccc(C)c3)CC2)cc1 | inactive: -19.1% |  |
| CN(C)P1(N(C)C)=Nc2c(c(N)nn2C)C(c2ccccc2)=N1 | inactive: 15.2% |  |
| Oc1ccccc1-[n+]1c(-c2ccccc2)cc(-c2ccccc2)cc1-c1ccccc1 | inactive: -0.731% |  |
| CCC12C=CCN3CCC4(c5cc(Br)c(OC)cc5N(C)C4C(O)(C(=O)OC)C1OC(C)=O)C32 (configuration not stated) | inactive: -22.9% |  |
| C=C[C@H]1CN2CC[C@H]1C[C@H]2[C@H](O)c1ccnc2ccccc12 | inactive: 19.1% |  |
| NC(N)=NC(=O)c1nc(Cl)c(N)nc1N |  | inactive |
| O=C(Nc1cccc(Cl)c1)c1cnc2sc(N3CCCC3)nn2c1=O |  | active: 5.17 µM |
| O=C1NC2C(=CC(O)C(O)C2O)c2cc3c(cc21)OCO3 (configuration not stated) |  | active: 2.06 µM |

| Structure (SMILES) | activity change, negative = inhibition | Potency |
| --- | --- | --- |
| O=C1C=C2C=C[C@H]3C[C@]2(O1)[C@@H]1CCCCN13 | inactive: -29.2% |  |
| c1cc2c(cc1[C@H]1OC[C@H]3[C@@H]1CO[C@@H]3c1ccc3c(c1)OCO3)OCO2 | inactive: -20% |  |
| CC(C)c1ccc(N2C(=O)NC(=O)/C(=C/c3cnc(-c4ccccc4)nc3)C2=O)cc1 | inactive: 11.9% |  |
| O=C1/C(=C\c2ccc([N+](=O)[O-])cc2)N2CCC1CC2 | inactive: 21.7% |  |
| COc1ccc(CNC(=O)Cn2c(=O)oc3cc(S(=O)(=O)N4CCCC4)ccc32)cc1 | inactive: -23.7% |  |
| Cc1cccc(N2CCN(C(=O)CCS(=O)(=O)c3ccc4c(c3)oc(=O)n4C)CC2)c1C | inactive: -27.4% |  |
| O=C1NC(=O)N(c2ccc3c(c2)OCO3)C(=O)/C1=C\c1ccc(N2CCCCC2)o1 | inactive: -16.1% |  |
| C[C@H]1C=CC(=O)O[C@H]1c1ccccc1 | inactive: 4.49% |  |
| Cn1c(=O)oc2cc(S(=O)(=O)CCC(=O)N3CCN(c4ccccc4)CC3)ccc21 | inactive: -7.27% |  |
| CC(C)C[C@H]1C(=O)N2CCCC2[C@]2(O)O[C@](NC(=O)[C@@H]3C=C4c5cccc6[nH]cc(c56)CC4N(C)C3)(C(C)C)C(=O)N12 (some centres not stated) | inactive: -29.4% |  |
| CC(CNC(=O)CCS(=O)(=O)c1ccc2c(c1)oc(=O)n2C)c1ccccc1 (configuration not stated) | inactive: -2.44% |  |
| CC(=O)OC1C(=O)OCC23CCC4(C)OC4C2OC2CC(OC(=O)C=CC=CC(=O)OCCC1C)C3(C)C21CO1 (configuration not stated) |  | active: 0.0164 µM |
| CC(C)CCNC(=O)c1c(N)n(Cc2ccc3c(c2)OCO3)c2nc3ccccc3nc12 |  | active: 20.6 µM |
| COC(=O)C1=C(c2ccccc2OCc2ccccc2)C[C@@H]2CC[C@H]1N2C(=O)NCc1ccc(F)cc1 |  | active: 23.1 µM |
| Cc1ccc(/C=C2\C(=O)NC(=O)N(CCc3ccc(F)cc3)C2=O)s1 | inactive: 23.3% |  |
| O=C(NN1C(=O)C2C3C=CC([C@H]4CC34)[C@@H]2C1=O)c1ccc(Br)cc1 (some centres not stated) | inactive: -12.9% |  |
| COC(=O)[C@H](Cc1ccccc1)N(Cc1ccccc1)S(=O)(=O)N(Cc1ccccc1)[C@@H](Cc1ccccc1)C(=O)OC | inactive: -28.5% |  |
| COc1ccc(-n2c(/C=C3\C(=O)Nc4ccccc43)nc3ccccc3c2=O)cc1 | inactive: -27.5% |  |
| CC(=O)O[C@@]12CO[C@@H]1C[C@@H](O)[C@@]1(C)C(=O)[C@H](O)C3=C(C)[C@@H](OC(=O)[C@H](O)[C@@H](NC(=O)c4ccccc4)c4ccccc4)C[C@@](O)([C@@H](OC(=O)c4ccccc4)C12)C3(C)C (some centres not stated) | inactive: -7.36% |  |
| Cc1cc(/C=C2/C(=O)NC(=O)N(c3ccc(Br)cc3)C2=O)c(C)n1C | inactive: 1.82% |  |
| COc1ccc(CCCc2nnc(SCC(=O)Nc3ccc(C)c(C)c3)o2)cc1 | inactive: -23.1% |  |
| CN1/C(=C\C=Nc2ccccc2)C(C)(C)c2ccccc21 | inactive: -29% |  |
| COc1ccccc1CN1CCN(C(=O)COc2cccc(C)c2)CC1 | inactive: 12.7% |  |
| C[C@@H]1CN([C@@H](C)CO)C(=O)c2cccc(NC(=O)c3ccncc3)c2O[C@@H]1CN(C)Cc1ccc(-c2ccccc2)cc1 | inactive: -7.05% |  |

| Structure (SMILES) | activity change, negative = inhibition | Potency |
| --- | --- | --- |
| COc1ccc(-c2cc(=NCCCCCC(=O)O)c3cc(C)ccc3o2)cc1 | inactive: -1.77% |  |
| Cn1c(O)c(C(=Nc2ccccc2)SCc2ccc(Cl)cc2)c(=O)n(C)c1=O |  | active: 23.1 µM |
| CCCc1cc(N2CCN(c3ccc(OC)cc3)CC2)n2cnnc2n1 |  | active: 11.6 µM |
| Cc1cccc(N2C(=O)NC(=O)/C(=C/c3ccc(N4CCOCC4)cc3)C2=O)c1 | inactive: 1.12% |  |
| O=C1/C(=C/c2ccc3c(c2)OCO3)N2CCC1CC2 | inactive: 10% |  |
| COc1cccc(N2CCN(c3c4c(nc5nncn35)CCC4)CC2)c1 |  | active: 16.4 µM |
| CCC1C2CC3C4N(C)c5ccccc5C45CC(C2C5O)N3[C@@H]1O (some centres not stated) | inactive: 0.12% |  |
| O=C1N[C@@H](Cc2ccccc2)C(=O)N2[C@H]1C[C@H]1c3ccccc3N(OOSc3ccccc3)[C@H]12 | inactive: -8.52% |  |
| CN(C)[C@@H]1C(=O)C(C(N)=O)=C(O)[C@@]2(O)C(=O)C3=C(O)c4c(O)cccc4[C@@](C)(O)[C@H]3[C@H](O)[C@@H]12 |  | inactive |
| CCN(CC)P(=O)(NC(=O)C(Cl)(Cl)Cl)N(CC)CC.[Cl-].[Cl-].[Cl-].[Nd+3] | inactive: -6.08% |  |
| [Cl][Pt+2][Cl].[NH-]C1CCCCC1[NH-] (configuration not stated) | inactive: -0.0262% |  |
| O=C1NC(=O)N(Cc2ccccc2)C(=O)/C1=C\C=C\c1ccco1 |  | active: 25.9 µM |
| CN(C)[C@@H]1C(=O)C(C(N)=O)=C(O)[C@@]2(O)C(=O)C3=C(O)c4c(O)cccc4[C@@](C)(O)C3[C@H](O)C12 (some centres not stated) | inactive: -1.79% |  |
| COC(=O)[C@@]12CCCCN1[C@H](c1ccc(-c3ccc(Cl)c(Cl)c3)c(OC)c1)[C@H]1C(=O)N(C)C(=O)[C@H]12 | inactive: -0.86% |  |
| COC(COC(N)=O)C1=C(N2CC2)C(=O)C(C)=C(N2CC2)C1=O (configuration not stated) |  | active: 2.06 µM |
| COc1cccc2c1cc([N+](=O)[O-])c1c(C(=O)O)cc3c(c12)OCO3 |  | active: 11.6 µM |
| Cc1ccc(C)c(N2CCN(C(=O)CCS(=O)(=O)c3ccc4c(c3)oc(=O)n4C)CC2)c1 | inactive: -29.8% |  |
| C[C@]12CCC(=O)C=C1CC[C@@H]1C2[C@H](O)C[C@]2(C)C(=O)CCC12 (some centres not stated) | inactive: -18.6% |  |
| COc1ccc(CCNC(=O)c2ccc3c(c2)N=C(C)c2cc(C)ccc2S3)cc1OC |  | active: 14.6 µM |
| C=CC1CN2CCC1CC2C(O)c1ccnc2ccccc12 (configuration not stated) | inactive: 0.502% |  |
| O=C(C1CCCN(S(=O)(=O)c2cccc3nsnc23)C1)N1CCN(c2cccc(Cl)c2)CC1 (configuration not stated) |  | active: 20.6 µM |
| C[C@]12CCC(=O)C=C1CC[C@@H]1[C@@H]2CC[C@@]2(C)[C@H]1CC[C@]2(C)O | inactive: -20.2% |  |
| N#CC(=C(O)c1ccc(S(=O)(=O)N(CCCl)CCCl)cc1)c1nc2ccccc2[nH]1 | inactive: -5.27% |  |
| Cc1c(C(c2ccc(Cl)cc2Cl)c2c(O)c3ccccc3oc2=O)c(=O)n(-c2ccccc2)n1C (configuration not stated) | inactive: -6.84% [at 9.27 µM] |  |
